In PubChem BioAssay AID1347417 (National Center for Advancing Translational Sciences (NCATS), 2020):
In all, about 120,000 compounds went through this assay and about 5,300 (4.4%) were called active. This list was built around the results that the source calls inconclusive (neither active nor inactive); the mix of calls is not that of the screen. The call rests on the fitted dose curve; in most records, active means well fitted inhibition curve with a large enough effect; inconclusive means small, poorly fitted or top-dose-only effect; inactive means no such curve, though single readings can be large or run the other way. Potencies beside an inconclusive call are fits to weak or partial responses and may not hold up.

Assay: qHTS Primary assay for Inhibitors of Plasmodium falciparum Dd2 growth in vitro; further: nearly all actives have a fitted effect of over 65% in size;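 on activity, negative = inhibition: plate controls were DMSO vehicle for no effect and reference drug for full effect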
Settings: P. falciparum Dd2 growth, SYBR Green, 72 h; activity, negative = inhibition: at 28.9 µM (top of the series) unless noted; series mostly up to 28.9 µM
Summary of the method: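 Readout: SYBR Green fluorescence, 485 nm excitation, 535 nm emission, after ~16 h lysis at 37C. Before that, Dd2-infected red cells (2.5% hematocrit) grew 72 h with compound, 29 uM top final concentration.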
Potency means the concentration at half of the fitted maximal effect; tags describe the fitted curve by direction and shape.

| SMILES | outcome | activity, negative = inhibition | Potency |
| --- | --- | --- | --- |
| O=C(NC[C@H]1OC[C@@H](N(Cc2ccccc2)Cc2ccccc2)[C@@H]1O)c1ccccc1 | inactive [at 44.1 µM] | – | – |
| Cc1ccc(C(=O)N2CC(N(C)c3ccccc3C)C2)cc1 | – | inactive: -12.3% [at 44.1 µM] | – |
| CC(Cn1ccnc1-c1cn(C2CCNCC2)nn1)Oc1cccnc1 (stereo not drawn) | – | inactive: -6.24% | – |
| CS(=O)(=O)N(C[C@H]1O[C@@H](CC(=O)NC2CC2)[C@H](O)[C@@H]1O)C[C@H]1O[C@@H](CC(=O)NC2CC2)[C@H](O)[C@@H]1O | – | inactive: 15.9% | – |
| Cc1ccc(-n2c(C3CCN(C(=O)c4nn(C)c5ccccc45)CC3)n[nH]c2=O)cc1 | – | – | inconclusive: 3.16 µM [inhibitor, full curve] |
| Cc1ccc(Nc2c3c(nc4nncn24)CCC3)cc1C | – | – | active: 10 µM |
| O=C1N(Cc2ccccc2F)CCOC12CCN(Cc1ccccc1)CC2 | – | – | inconclusive: 0.447 µM [inhibitor, partial curve, poor fit] |
| O=C(CSc1nc2c(oc3ccccc32)c(=O)n1-c1ccccc1F)Nc1ccccc1 | – | inactive: -11.6% | – |
| CCOC(=O)c1c(S(=O)(=O)N2CCCC(C(=O)N3CCN(c4cccc(C)c4C)CC3)C2)c(C)n(C)c1C (stereo not drawn) | – | – | active: 1.12 µM |
| CC(=O)Nc1ccc(CN2CCC3(CC2)NC(=O)c2ccccc2O3)cc1 | inactive | – | – |
| O=C(NCc1ccccc1)N1CCOC(CN(CC2CC2)C(=O)c2cccc(F)c2)C1 (stereo not drawn) | – | – | inconclusive: 2.24 µM [inhibitor, single point] |
| COCCn1cnc2ccc(-c3ccnn3C)nc2c1=O | inactive [at 44.1 µM] | – | – |
| COC1CCC12CCN(Cc1cccc(C#N)c1)CC2 (stereo not drawn) | – | – | inconclusive: 1.26 µM [inhibitor, partial curve, poor fit] |
| COC(=O)[C@@H]1Cc2c([nH]c3ccccc23)[C@H]2C[C@H](NCCN3CCOCC3)C[C@@H](c3ccc(F)cc3)N21 | – | – | active: 11.2 µM |
| COc1ccc(C2=NOC3(CCCN(C(=O)Cc4ccccc4)C3)C2)cc1 (stereo not drawn) | – | inconclusive: -58.2% [inhibitor] | – |
| O=C(NCCC1=CCCCC1)C1CCN(C(=O)N2CC3CC(C2)[C@H]2CCCC(=O)N2C3)CC1 (stereo partly drawn) | – | – | inconclusive: 8.91 µM [inhibitor, single point] |
| CCn1cc2nc(SCC(=O)Nc3ccc(C)cc3C)n(Cc3ccc(C)cc3)c(=O)c2n1 | – | – | inconclusive: 10 µM [inhibitor, partial curve, poor fit] |
| Cc1cc(=O)n(CC(=O)Nc2cccc(C)c2C)c(N2CCc3ccccc3C2)n1 | – | – | inconclusive: 2 µM [inhibitor, partial curve, poor fit] |
| CCN1C(=O)CCN(S(=O)(=O)c2cccc(OC)c2)CC12CCOCC2 | – | inactive: -10.2% | – |
| COc1cc(=O)n2c(c1C(=O)NCc1ccc(F)cc1Cl)CCCC2 | – | – | inconclusive: 7.94 µM [inhibitor, single point] |
| CC1(C)[C@H]2CC[C@@H](CNC(=O)c3cccc(Br)c3)[C@@H]1C2 | – | – | active: 11.2 µM |
| COC(=O)C1=C(C)N=C2SC=C(CC(=O)NC3CC3)N2C1c1cccc(F)c1 (stereo not drawn) | – | – | inconclusive: 10 µM [inhibitor, single point] |

| SMILES | outcome | activity, negative = inhibition | Potency |
| --- | --- | --- | --- |
| CCOC(=O)CNS(=O)(=O)c1cc(-c2nnc(Nc3cccc(O)c3)c3ccccc23)ccc1C | – | – | inconclusive: 10 µM [inhibitor, single point] |
| COCC1CN(C2CCC2)CC12CCN(C(=O)NCCc1ccccc1)CC2 (stereo not drawn) | – | – | inconclusive: 0.631 µM [inhibitor, full curve, poor fit] |
| O=C(c1ccc(Cl)cc1)N1CCC2(CC1)C(=O)NCN2CCc1ccccc1 | – | – | inconclusive: 8.91 µM [inhibitor, single point] |
| CCCc1ccc(C2Sc3ccccc3NC3=C2C(=O)c2ccccc23)cc1 (stereo not drawn) | – | – | active: 3.16 µM |
| COc1ccc(OCC2(C)COc3ccc(C(=O)NCc4ccc(F)cc4)cc3N2)cc1 (stereo not drawn) | – | – | inconclusive: 31.6 µM [inhibitor, single point] |
| COc1cc2c(cc1OC)C(CNC(=O)c1cccc(F)c1)N(C(=O)Nc1ccc(C)cc1)CC2 (stereo not drawn) | inactive | – | – |
| CN1CCCC2(Cc3ccccc3CN(C(=O)Cc3ccccc3)C2)C1 (stereo not drawn) | – | – | inconclusive: 2.82 µM [inhibitor, partial curve, poor fit] |
| Cc1ccc2oc([C@H]3CCN(Cc4c[nH]c5ccccc45)C3)nc2c1 | – | – | inconclusive: 2.82 µM [inhibitor, full curve, poor fit] |
| COc1ccc(C2Cn3nnc(-c4noc(-c5ccc[nH]5)n4)c3CO2)cc1 (stereo not drawn) | – | – | inconclusive: 2.82 µM [inhibitor, single point] |
| Cn1cc(-c2cnc3[nH]cc(CC(=O)NCc4ccncc4)c3c2)cn1 | – | – | active: 3.98 µM |
| CC(C)(C)c1ccc(-c2nc3cc(NC(=O)c4cccc(Br)c4)ccc3o2)cc1 | – | – | inconclusive: 4.47 µM [inhibitor, partial curve, poor fit] |
| COc1ccc(-c2cnc(NC(=O)Cc3ccccc3)c3c2CCO3)cn1 | – | inactive: 16.5% [at 44.1 µM] | – |
| COCCN1CCCCCC(O)c2cc(C(=O)NC3CCCCC3)ccc21 (stereo not drawn) | – | – | inconclusive: 11.2 µM [inhibitor, single point] |
| Cc1nncn1CCN1CCCC(CCC(=O)N(C)C2CCN(C)CC2)C1 (stereo not drawn) | – | inactive: 4.57% | – |
| COc1ccccc1CN(Cc1ccco1)c1cnc(S(C)(=O)=O)nc1C(=O)Nc1cc(C)ccc1C | – | – | inconclusive: 11.2 µM [inhibitor, single point] |
| CCOc1ccccc1NC(=O)c1c(NC(=O)c2ccccc2)sc2c1CCCC2 | inactive | – | – |
| CCOc1ccccc1CNC(=O)c1cnc2sc(N3CCCCCC3)nn2c1=O | – | – | inconclusive: 17.8 µM [inhibitor, single point] |
| Cc1ccsc1CN1CCC(Oc2ccccc2-c2nc(-c3ccncc3)no2)C1 (stereo not drawn) | – | – | inconclusive: 1.26 µM [inhibitor, partial curve, poor fit] |
| Cc1ccccc1CN1CCn2c(nn(CC3COc4ccccc4O3)c2=O)C1=O (stereo not drawn) | – | – | inconclusive: 5.01 µM [inhibitor, partial curve] |
| CCc1ccc(Oc2c(C(F)(F)F)oc3c(CN4CCN(C)CC4)c(O)ccc3c2=O)cc1 | – | – | active: 0.282 µM |
| COc1ccc(Nc2cnc3ccc(N(C)Cc4cccnc4)nn23)cc1OC | – | – | inconclusive: 2.82 µM [inhibitor, full curve, poor fit] |
